According to PubChem BioAssay AID624417 (National Center for Advancing Translational Sciences (NCATS), 2012):
In all, about 410,000 compounds went through this assay and about 6,400 (1.6%) were called active. Inconclusive results, whose numbers are uncertain, are shown with a selection of clear calls. Calls follow the shape of the dose curve; as a rule, active = well fitted inhibition curve with a large enough effect; inconclusive = small, poorly fitted or top-dose-only effect; inactive = no such curve, though single readings can be large or run the other way. Potencies of inconclusive entries are left out as doubtful fits.
Also: nearly all actives have a fitted effect of over 55% in size.
Potency is read from the fitted curve at half-maximal effect; tags tell the direction and shape of the fitted curve.

Each molecule was assayed against Glucagon-like peptide 1 receptor (Homo sapiens) (UniProt P43220) (assay: qHTS of GLP-1 Receptor Inverse Agonists (Inhibition Mode)). Settings: HEK293 GLP-1R CRE-luciferase, luminescence, 24 h, GLP-1R form is constitutively active; series mostly up to 38.3 µM.
Sequence of UniProt P43220 (P43220 whole entry, looked up): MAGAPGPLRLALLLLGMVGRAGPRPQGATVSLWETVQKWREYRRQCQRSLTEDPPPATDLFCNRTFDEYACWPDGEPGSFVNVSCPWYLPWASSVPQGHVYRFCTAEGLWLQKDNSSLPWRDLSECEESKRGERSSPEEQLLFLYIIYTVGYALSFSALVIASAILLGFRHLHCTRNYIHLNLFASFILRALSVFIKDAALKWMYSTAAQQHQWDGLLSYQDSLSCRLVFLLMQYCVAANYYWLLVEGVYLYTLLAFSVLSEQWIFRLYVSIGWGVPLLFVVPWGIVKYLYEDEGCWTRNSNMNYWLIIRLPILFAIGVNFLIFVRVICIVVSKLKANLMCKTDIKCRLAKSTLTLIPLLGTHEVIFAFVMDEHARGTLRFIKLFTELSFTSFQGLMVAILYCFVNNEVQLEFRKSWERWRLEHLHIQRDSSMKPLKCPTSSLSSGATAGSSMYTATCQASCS
In short: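 Readout was luciferase luminescence, measured 12 min after detection reagent at room temperature. Beforehand, GLP-1R reporter HEK293 cells had sat 12 h, then received compounds for 24 hr at 37 deg C.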
For `O=C(NC1CC1)C1CCN(S(=O)(=O)c2ccc(Cl)c([N+](=O)[O-])c2)CC1`, the Potency was inconclusive [inhibitor, single point].
In the case of `Cc1ccc[n+](CC(=O)Nc2cc(C(F)(F)F)ccc2Cl)c1`, the Potency is reported as “inactive”.
For `O=C(O)/C=C\C(=O)Nc1ccc(N2CCN(c3cccc(Cl)c3)CC2)cc1`, the Potency was inconclusive [inhibitor, partial curve, poor fit].
With `O=C(Cc1ccccc1)CC(CC(=O)c1ccccc1)c1ccccc1` (centres undefined) the Potency was inconclusive [inhibitor, partial curve, poor fit].
For `CC(C)c1ccc(NC(=O)CSc2n[nH]c(=O)n2-c2ccc3c(c2)OCCO3)cc1`, the Potency was inconclusive [inhibitor, partial curve, poor fit].
For `CCOP(=O)(OCC)C(NC(=O)c1cccs1)c1ccccc1` (centres undefined), the Potency was inconclusive [inhibitor, single point].
With `CCCCNc1c(-c2ccc(SC3CCCCC3)cc2)nc2cnccn12` the Potency was inconclusive [inhibitor, single point].
In the case of `C/C(CC(=O)Nc1ccc(Cl)cc1C(F)(F)F)=N\NC(=O)c1cccs1`, the Potency is reported as inconclusive [inhibitor, single point].
In the case of `CC(C)(C)c1ccccc1NC(=S)NCc1ccccc1`, the Potency is reported as inconclusive [inhibitor, single point].
For `CC(C)c1ccc(N(CC(=O)NC2CCCC2)C(=O)CCC(=O)Nc2nccs2)cc1`, the Potency was inconclusive [inhibitor, full curve].
With `CC(C)N(Cc1ccccc1)C(=O)c1nc(-c2ccc(Cl)cc2)n2c1CCCCC2` the Potency was inconclusive [inhibitor, partial curve, poor fit].
In the case of `CN(Cc1ccccc1)C(=O)c1oc(=O)c2ccccc2c1-c1ccccc1`, the Potency is reported as inconclusive [inhibitor, partial curve, poor fit].
For `CN1C(=O)N(C)C2(c3ccccc3)N(C(C)(C)C)C(=O)NC12c1ccccc1` (centres undefined), the Potency was “inactive”.
In the case of `COc1cccc(NC(=O)C2(C)CCN2CCc2ccccc2)c1` (centres undefined), the Potency is reported as active: 11.2 µM.
In the case of `O=C(Nc1cccc2ccccc12)/C(=C\c1cccc([N+](=O)[O-])c1)NC(=O)c1cccs1`, the Potency is reported as “inactive”.
In the case of `CCOc1ccc(-n2c(C)cc(/C=C3/C(=N)N4C(=NC3=O)SN=C4S(C)(=O)=O)c2C)cc1`, the Potency is reported as “inactive”.
In the case of `CN1CCN(CCC(=O)N2c3ccccc3Sc3ccc(C(F)(F)F)cc32)CC1`, the Potency is reported as inconclusive [inhibitor, partial curve, poor fit].
With `COc1ccc(CNC(=O)c2cnc(C)cn2)c(OC)c1` the Potency was “inactive”.
`Cc1ccc(C)c(OCCCCN2CCNCC2)c1C` was tested, and the Potency was inconclusive [inhibitor, partial curve, poor fit].
`CC1CCc2c(nc3ncnn3c2NCCc2ccccc2F)C1` (centres undefined) was tested, and the Potency was inconclusive [inhibitor, full curve, poor fit].
`CCN(c1ccccc1C)S(=O)(=O)c1nnc(NC(=O)c2ccccc2C)s1` was tested, and the Potency was inconclusive [inhibitor, single point].
For `Cc1ccc(C)c(NS(=O)(=O)c2ccc3c(c2)NC(=O)CCS3)c1`, the Potency was inconclusive [inhibitor, single point].
In the case of `Cc1ccccc1CN1CCN(CCCc2ccccc2)C(CCO)C1` (centres undefined), the Potency is reported as inconclusive [inhibitor, single point].
In the case of `O=C(Nc1ccc(Oc2cccnc2)cc1)C1CCN(Cc2ccc(F)cc2)CC1`, the Potency is reported as inconclusive [inhibitor, partial curve].
With `COc1ccccc1NC(=O)Nc1cc(F)ccc1F` the Potency was inconclusive [inhibitor, single point].
With `CC1CC(C)CN(C(=O)c2cccc(S(=O)(=O)N3c4ccccc4CC3C)c2)C1` (centres undefined) the Potency was inconclusive [inhibitor, partial curve, poor fit].
With `O=C(/C=C/Nc1ccccc1O)c1ccco1` the Potency was inconclusive [inhibitor, single point].
For `Cc1ccccc1-c1nc(CN2CCN(C(=O)c3ccco3)CC2)c(C)o1`, the Potency was “inactive”.
With `Cc1[nH]c2ccccc2c1C(=O)C(=O)N(C)C1CCCCC1` the Potency was inconclusive [inhibitor, single point].
In the case of `O=C(Cn1cc(S(=O)(=O)Cc2cccc([N+](=O)[O-])c2)c2ccccc21)N1CCOCC1`, the Potency is reported as inconclusive [inhibitor, single point].
With `CC1(C)CC(=O)C=C(Nc2ccc(F)cc2)C1` the Potency was “inactive”.
With `CCCN(CCC)c1nc(-c2ccccn2)nc2ccccc12` the Potency was active: 3.55 µM.
`O=C(CSc1nc2ccccc2c(=O)n1NC(=O)Cc1ccccc1)NCc1ccccc1` was tested, and the Potency was inconclusive [inhibitor, single point].
In the case of `Cc1cc(S(=O)(=O)N(Cc2ccc(C(C)C)cc2)CC2CCCO2)ccc1-n1cnnn1` (centres undefined), the Potency is reported as inconclusive [inhibitor, single point].
For `O=C1CC(c2c(F)cccc2Cl)c2c(ccc3ccccc23)N1` (centres undefined), the Potency was inconclusive [inhibitor, partial curve].
In the case of `COc1ccc(Cl)cc1C(=O)Nc1ccccc1N1CCCCC1`, the Potency is reported as inconclusive [inhibitor, partial curve, poor fit].
`Cc1ccc(NS(=O)(=O)c2ccc(C(C)C)cc2)cc1S(=O)(=O)N1CCOCC1` was tested, and the Potency was inconclusive [inhibitor, partial curve, poor fit].
In the case of `Cc1ccc(S(=O)(=O)NC(CC(C)C)C(=O)N2CCN(C/C=C/c3ccccc3)CC2)cc1` (centres undefined), the Potency is reported as inconclusive [inhibitor, single point].
For `COC(=O)c1cccnc1-n1c(=O)c2cccnc2n(CC(=O)Nc2cccc(C)c2)c1=O`, the Potency was “inactive”.
`O=C(CCn1nc(-c2ccccc2)c2ccccc2c1=O)N1CCN(c2ccccc2)CC1` was tested, and the Potency was inconclusive [inhibitor, partial curve, poor fit].
In the case of `O=S(=O)(c1ccc(SCc2cccc(Cl)c2)nc1)N1CCCC1`, the Potency is reported as inconclusive [inhibitor, partial curve, poor fit].
`CSc1ncnc2c1ncn2CCCN1CCN(c2ncccn2)CC1` was tested, and the Potency was “inactive”.
For `CN1CCN(NC(=O)Nc2cc(Cl)cc(Cl)c2)CC1`, the Potency was inconclusive [inhibitor, partial curve, poor fit].
`COc1ccc(-n2c(-c3ccccc3)c[n+]3c2CCC3)cc1` was tested, and the Potency was inconclusive [inhibitor, single point].
`CCN1/C(=C/C(=S)Nc2ccccc2)Sc2ccccc21` was tested, and the Potency was inconclusive [inhibitor, single point].
In the case of `CCOC(=O)CC1CCCCN1C(=O)c1ccc2oc(CCc3ccccc3)nc2c1` (centres undefined), the Potency is reported as inconclusive [inhibitor, partial curve, poor fit].
`O=C(CCS(=O)(=O)c1nc(-c2ccc3c(c2)OCO3)cc(C(F)(F)F)n1)Nc1ccc(Br)cc1` was tested, and the Potency was inconclusive [inhibitor, partial curve, poor fit].
In the case of `COc1ccc(CNC(=O)Cc2coc3ccc(C)cc23)cc1`, the Potency is reported as inconclusive [inhibitor, partial curve, poor fit].
In the case of `CCC(CC)C(=O)Nc1cccc(C(=O)Nc2ccc3c(c2)OCO3)c1`, the Potency is reported as inconclusive [inhibitor, partial curve, poor fit].
`Brc1cc2c(cc1Br)OCCOCCOCCOCCO2` was tested, and the Potency was inconclusive [inhibitor, partial curve, poor fit].
For `CC(C)Cn1c(N)c(C(=O)COC(=O)c2ccc3c(c2)OCCO3)c(=O)n(C)c1=O`, the Potency was “inactive”.
With `NC(=O)CSc1nc(C23CC4CC(CC(C4)C2)C3)nc2ccccc12` the Potency was inconclusive [inhibitor, full curve, poor fit].
For `Cc1cccc(C)c1NC(=O)NC1(C(=O)N2CCN3CCCC3C2)CCCCC1` (centres undefined), the Potency was “inactive”.
For `CCOC(=O)c1sc2nc(N3CCOCC3)c3c(c2c1N)CC(C)(C)N(C)C3`, the Potency was “inactive”.
For `Cc1cc(C)cc(N2C(=O)N(Cc3cc(=O)n4ccccc4n3)c3ccccc3S2(=O)=O)c1`, the Potency was inconclusive [inhibitor, partial curve].
For `CCN(Cc1nc2cc(Cl)ccc2c(=O)[nH]1)C(=O)c1cccc(OCc2c(C)noc2C)c1`, the Potency was “inactive”.
For `CCOc1ccc(C(=O)/C=C/c2cn(CC(O)CN3CCc4ccccc43)c3ccccc23)cc1` (centres undefined), the Potency was inconclusive [inhibitor, partial curve, poor fit].
For `CCC(=O)c1ccc(OCC(O)CNCc2ccc(F)cc2)cc1` (centres undefined), the Potency was inconclusive [inhibitor, partial curve, poor fit].
With `CCc1nc2c(OCCc3cccc(OC)c3)cccn2c1N(C=O)Cc1ccccc1` the Potency was inconclusive [inhibitor, single point].
`CCOc1ccc(N(CC(=O)NC2CCCCC2)C(=O)CCC(=O)Nc2nccs2)cc1` was tested, and the Potency was “inactive”.
In the case of `Cc1ccc(NC(=O)C2(C)CCN2C(=O)CC(c2ccccc2)c2ccccc2)cc1` (centres undefined), the Potency is reported as inconclusive [inhibitor, single point].
In the case of `CCN(CC)S(=O)(=O)c1ccc(C)c(NC(=O)CSc2ncc(C(F)(F)F)cc2Cl)c1`, the Potency is reported as inconclusive [inhibitor, partial curve].
With `CCN(CC(=O)Nc1c(F)cccc1F)C(=O)/C=C/c1ccc(S(=O)(=O)N2CCCCCC2)cc1` the Potency was inconclusive [inhibitor, single point].
In the case of `CCOC(=O)C1=C(C)NC(=O)NC1c1c(O)ccc2ccccc12` (centres undefined), the Potency is reported as “inactive”.
